The shares of active, inactive and inconclusive entries below differ from those in the screen. Potencies of inconclusive entries are left out as doubtful fits. Active and inactive are the calls of the source. Calls come from the whole dose curve; as a rule, active = well fitted activation curve with a large enough effect; inconclusive = small, poorly fitted or top-dose-only effect; inactive = no such curve, though single readings can be large or run the other way.
Target: Rap guanine nucleotide exchange factor 3 (Homo sapiens) (UniProt O95398)
Chain of UniProt O95398 (O95398 whole entry, looked up): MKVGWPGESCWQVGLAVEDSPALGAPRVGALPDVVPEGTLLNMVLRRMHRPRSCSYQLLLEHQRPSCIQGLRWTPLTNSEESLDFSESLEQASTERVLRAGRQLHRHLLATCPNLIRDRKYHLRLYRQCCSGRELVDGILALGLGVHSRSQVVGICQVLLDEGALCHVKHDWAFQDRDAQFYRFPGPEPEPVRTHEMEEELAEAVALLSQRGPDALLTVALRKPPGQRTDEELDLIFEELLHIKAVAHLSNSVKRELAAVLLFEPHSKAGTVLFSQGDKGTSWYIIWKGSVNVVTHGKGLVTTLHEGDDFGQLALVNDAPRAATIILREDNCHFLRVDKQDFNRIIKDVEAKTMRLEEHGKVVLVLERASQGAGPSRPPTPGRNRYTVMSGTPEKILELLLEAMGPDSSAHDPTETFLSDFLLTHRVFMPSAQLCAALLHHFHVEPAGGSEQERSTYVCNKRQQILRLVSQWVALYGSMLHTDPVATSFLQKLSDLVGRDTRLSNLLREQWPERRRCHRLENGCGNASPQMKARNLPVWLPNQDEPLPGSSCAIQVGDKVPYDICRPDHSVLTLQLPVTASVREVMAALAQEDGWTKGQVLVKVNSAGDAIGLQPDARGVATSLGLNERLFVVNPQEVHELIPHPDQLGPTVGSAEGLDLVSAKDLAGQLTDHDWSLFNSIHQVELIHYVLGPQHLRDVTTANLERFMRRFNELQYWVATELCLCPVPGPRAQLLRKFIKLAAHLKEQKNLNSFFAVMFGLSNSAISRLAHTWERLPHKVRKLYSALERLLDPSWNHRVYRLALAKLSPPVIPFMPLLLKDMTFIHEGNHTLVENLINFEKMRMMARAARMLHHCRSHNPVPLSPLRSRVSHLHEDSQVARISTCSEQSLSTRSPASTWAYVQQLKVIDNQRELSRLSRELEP
Experiment: Confirmatory qHTS for agonist of cAMP-regulated guanine nucleotide exchange factor 3 (EPAC1) (AID 1645881); note: nearly all actives have a fitted effect of over 75% in size;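 for activation: EPAC1 catalysed release of BODIPY-GDP from Rap1B seen as fluorescence loss; 100% = effect of cAMP agonist control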
Conditions: EPAC1 Rap1B BODIPY-GDP exchange fluorescence; activation: at 154 µM (top of the series), 100% = cAMP control response
Potency is the fitted concentration of half-maximal effect; tags give direction and shape of the fitted curve.

**Q.** `CCOc1cccc2sc(N3CCN(C(=O)C(C)(C)C)CC3)nc12` was tested. Which Potency did it give?
**A.** inconclusive [activator, single point]

**Q.** With `O=C(Nc1cccc(Cl)c1)OC1CCCCc2cccnc21` (stereo not drawn) as the compound, how does the “activation” value read?
**A.** inactive: 9.35%

**Q.** With `Nc1ccc2c3c(cccc13)C(=O)N(c1ccccc1)C2=O` as the compound, how does the Potency read?
**A.** inconclusive [activator, partial curve, poor fit]

**Q.** How did the “activation” value turn out when `Cc1cc2ccccn2c1C(=O)c1ccc(C#N)cc1` was run?
**A.** inactive: -4.27%

**Q.** Which Potency does the source give for `CNc1ccc2c3c(cccc13)C(=O)N(C)C2=O` here?
**A.** inconclusive [activator, partial curve, poor fit]

**Q.** Which “activation” value does the source give for `COc1cc2c(cc1OC)CN(C(C)C(=O)N1CCc3ccccc31)CC2` (stereo not drawn) here?
**A.** inactive: 11.2%

**Q.** `COc1ccc(C(=O)NCCONC(=O)c2ccc(OC)cc2)cc1` was tested. Which “activation” value did it give?
**A.** inactive: 0.231%

**Q.** For `CCCN1C(=O)S/C(=C/c2ccc(N3CCOCC3)o2)C1=O`, which Potency is on record?
**A.** inconclusive [activator, partial curve, poor fit]

**Q.** How did the Potency turn out when `COc1ccc(NC2c3ccccc3C(=O)N2c2ccccn2)cc1Cl` (stereo not drawn) was run?
**A.** inconclusive [activator, partial curve, poor fit]

**Q.** How did the Potency turn out when `O=[N+]([O-])c1ccc(N(c2ccccc2)c2ccccc2)cc1` was run?
**A.** inconclusive [activator, partial curve, poor fit]

**Q.** With `Cc1nn(C)cc1N1C(=O)c2cccc3c(N)ccc(c23)C1=O` as the compound, how does the Potency read?
**A.** active: 112 µM

**Q.** With `COc1ccc2c(c1)C1=NN(/C(C)=C/C(C)=O)C(c3cccc(F)c3)C1CC2` (stereo not drawn) as the compound, how does the “activation” value read?
**A.** inactive: 11.1%

**Q.** Which Potency does the source give for `CCn1c(O)c(/C=N/N=C/c2ccc(OC)cc2)c2cc(C3=NNC(=O)CC3)ccc21` here?
**A.** active: 89.1 µM

**Q.** Which Potency does the source give for `CC1=Nc2ccccc2/C1=C\c1nc(-c2ccccc2)oc1O` here?
**A.** inconclusive [activator, partial curve, poor fit]

**Q.** Which Potency does the source give for `CCN(CC)c1ccc2cc(C(=O)NNC(=O)c3ccc(S(=O)(=O)N4CCCCC4)cc3)c(=O)oc2c1` here?
**A.** inconclusive [activator, single point]

**Q.** Which Potency does the source give for `Cn1c(N)c(C(=O)COC(=O)c2cc(-c3ccco3)nc3ccccc23)c(=O)n(C)c1=O` here?
**A.** inconclusive [activator, partial curve, poor fit]

**Q.** Which “activation” value does the source give for `CC1(C(=O)O)CCC2(C)CCC3(C)C(=CC(=O)C4C5(C)CCC(=O)C(C)(C)C5CCC43C)C2C1` (stereo not drawn) here?
**A.** inactive: 3.98%

**Q.** With `N#CC(C(=O)NCc1ccccc1)c1nc2ccccc2nc1N1CCCC1` (stereo not drawn) as the compound, how does the Potency read?
**A.** active: 100 µM

**Q.** With `Nc1cc(N)cc(N)c1` as the compound, how does the Potency read?
**A.** inconclusive [activator, partial curve, poor fit]

**Q.** For `Cc1ccc(-c2csc3ncnc(Nc4ccc(C(=O)O)cc4)c23)cc1`, which activation is on record?
**A.** inconclusive: 73.2% [activator]

**Q.** Which “activation” value does the source give for `COC(=O)c1cn(C(=O)c2cc(OC)c(OC)c(OC)c2)c2ccccc12` here?
**A.** inactive: 3.11%

**Q.** `Cn1nc(-c2ccccc2)c2nc3ccccc3nc21` was tested. Which Potency did it give?
**A.** inconclusive [activator, single point]

**Q.** Which Potency does the source give for `O=C1c2cccc3c(N4CCCCC4)ccc(c23)C(=O)N1c1ccc(O)cc1` here?
**A.** inconclusive [activator, partial curve, poor fit]

**Q.** Which Potency does the source give for `CCN1CCN(c2ccc(S(=O)(=O)N3CCCCC3)cc2NC(=O)c2cccc(OC(F)F)c2)CC1` here?
**A.** inconclusive [activator, single point]

**Q.** `CCn1cc(C=C2C(=O)c3ccccc3C2=O)c2ccccc21` was tested. Which “activation” value did it give?
**A.** inactive: 18.8%

**Q.** `CO/N=C(/COc1ccc(F)cc1)c1ccc(OC)cc1` was tested. Which “activation” value did it give?
**A.** inactive: 5.91%

**Q.** How did the “activation” value turn out when `COc1ccc(NS(=O)(=O)c2ccc(S(=O)(=O)N3CCCC3)cc2)cc1` was run?
**A.** inactive: 8.24%

Target: Rap guanine nucleotide exchange factor 4 (Homo sapiens) (UniProt Q8WZA2)
Chain of UniProt Q8WZA2 (Q8WZA2 whole entry, looked up): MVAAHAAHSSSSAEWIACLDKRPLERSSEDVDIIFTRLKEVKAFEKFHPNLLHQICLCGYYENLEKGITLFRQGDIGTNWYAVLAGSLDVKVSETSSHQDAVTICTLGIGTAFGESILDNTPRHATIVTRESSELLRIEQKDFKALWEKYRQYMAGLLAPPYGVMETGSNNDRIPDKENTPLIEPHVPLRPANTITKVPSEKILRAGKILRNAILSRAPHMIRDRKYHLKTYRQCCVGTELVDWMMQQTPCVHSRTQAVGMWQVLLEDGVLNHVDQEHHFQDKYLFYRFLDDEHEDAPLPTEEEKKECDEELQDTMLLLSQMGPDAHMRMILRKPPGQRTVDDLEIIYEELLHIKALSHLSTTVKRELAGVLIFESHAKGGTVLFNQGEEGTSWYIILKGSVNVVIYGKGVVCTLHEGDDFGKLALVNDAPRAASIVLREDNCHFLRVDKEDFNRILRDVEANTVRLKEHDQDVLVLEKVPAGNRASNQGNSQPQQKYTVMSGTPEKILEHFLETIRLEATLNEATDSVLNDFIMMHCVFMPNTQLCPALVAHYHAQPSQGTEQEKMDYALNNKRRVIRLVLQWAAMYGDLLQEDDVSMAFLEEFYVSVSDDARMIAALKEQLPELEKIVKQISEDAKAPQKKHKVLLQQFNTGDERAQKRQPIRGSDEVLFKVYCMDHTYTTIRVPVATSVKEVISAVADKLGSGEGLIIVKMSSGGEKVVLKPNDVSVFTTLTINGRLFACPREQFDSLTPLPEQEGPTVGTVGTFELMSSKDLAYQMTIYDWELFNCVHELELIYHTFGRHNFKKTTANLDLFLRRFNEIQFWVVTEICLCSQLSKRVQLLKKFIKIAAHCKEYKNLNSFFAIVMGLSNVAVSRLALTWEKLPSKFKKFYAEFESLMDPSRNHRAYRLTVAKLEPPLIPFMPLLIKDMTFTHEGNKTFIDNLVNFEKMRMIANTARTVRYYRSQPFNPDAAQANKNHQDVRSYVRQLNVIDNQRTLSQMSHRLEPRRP
Experiment: Confirmatory qHTS for agonist of cAMP-regulated guanine nucleotide exchange factor 4 (EPAC2) (AID 1645884);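 note: nucleotide exchange releases bodipy-GDP from Rap1 and this lowers its fluorescence; nearly all actives have a fitted effect of over 65% in size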
Conditions: EPAC2 GEF activity, Rap1B-BODIPY-GDP fluorescence; series mostly up to 154 µM; activation: at the top concentration

**Q.** `O=S(=O)(c1ccc(Cl)c2ccccc12)N1CCCC1` was tested. Which Potency did it give?
**A.** inconclusive [activator, partial curve, poor fit]

**Q.** How did the Potency turn out when `COc1cccc(/C(O)=C/c2nc3ccc(C(=O)NCCc4cccc(C)c4)cc3[nH]c2=O)c1` was run?
**A.** inconclusive [activator, partial curve]

**Q.** For `N#Cc1cc(Br)ccc1N=C1CCCN1c1ccccc1`, which Potency is on record?
**A.** inconclusive [activator, partial curve, poor fit]

**Q.** `Nc1ccc2c3c(cccc13)C(=O)N(c1ccccc1)C2=O` was tested. Which Potency did it give?
**A.** active: 100 µM

**Q.** How did the Potency turn out when `CNc1ccc2c3c(cccc13)C(=O)N(C)C2=O` was run?
**A.** active: 112 µM

**Q.** `CCCN1C(=O)S/C(=C/c2ccc(N3CCOCC3)o2)C1=O` was tested. Which Potency did it give?
**A.** active: 112 µM

**Q.** With `Cc1nn(C)cc1N1C(=O)c2cccc3c(N)ccc(c23)C1=O` as the compound, how does the Potency read?
**A.** active: 100 µM

**Q.** For `CCn1c(O)c(/C=N/N=C/c2ccc(OC)cc2)c2cc(C3=NNC(=O)CC3)ccc21`, which Potency is on record?
**A.** active: 100 µM

**Q.** `CCN(CC)c1ccc2cc(C(=O)NNC(=O)c3ccc(S(=O)(=O)N4CCCCC4)cc3)c(=O)oc2c1` was tested. Which Potency did it give?
**A.** active: 112 µM

**Q.** With `Cn1c(N)c(C(=O)COC(=O)c2cc(-c3ccco3)nc3ccccc23)c(=O)n(C)c1=O` as the compound, how does the Potency read?
**A.** inconclusive [activator, partial curve, poor fit]

**Q.** How did the Potency turn out when `N#CC(C(=O)NCc1ccccc1)c1nc2ccccc2nc1N1CCCC1` (stereo not drawn) was run?
**A.** active: 89.1 µM

**Q.** How did the Potency turn out when `Nc1cc(N)cc(N)c1` was run?
**A.** inconclusive [activator, partial curve, poor fit]

**Q.** With `Cn1nc(-c2ccccc2)c2nc3ccccc3nc21` as the compound, how does the Potency read?
**A.** active: 100 µM

**Q.** With `O=C1c2cccc3c(N4CCCCC4)ccc(c23)C(=O)N1c1ccc(O)cc1` as the compound, how does the Potency read?
**A.** active: 112 µM

**Q.** Which Potency does the source give for `CCN1CCN(c2ccc(S(=O)(=O)N3CCCCC3)cc2NC(=O)c2cccc(OC(F)F)c2)CC1` here?
**A.** inconclusive [activator, single point]

**Q.** `CCn1cc(C=C2C(=O)c3ccccc3C2=O)c2ccccc21` was tested. Which Potency did it give?
**A.** inconclusive [activator, single point]

Source: PubChem BioAssay (NCATS)
